# In all, about 33,000 sequences were measured (“E-score (-0.5 to 0.5)”: median about -0.036, highest 2% from about 0.37 on). This is one part of the list.
# Biological target: T1, Yer064c (UniProt P40041)
# T1 sequence: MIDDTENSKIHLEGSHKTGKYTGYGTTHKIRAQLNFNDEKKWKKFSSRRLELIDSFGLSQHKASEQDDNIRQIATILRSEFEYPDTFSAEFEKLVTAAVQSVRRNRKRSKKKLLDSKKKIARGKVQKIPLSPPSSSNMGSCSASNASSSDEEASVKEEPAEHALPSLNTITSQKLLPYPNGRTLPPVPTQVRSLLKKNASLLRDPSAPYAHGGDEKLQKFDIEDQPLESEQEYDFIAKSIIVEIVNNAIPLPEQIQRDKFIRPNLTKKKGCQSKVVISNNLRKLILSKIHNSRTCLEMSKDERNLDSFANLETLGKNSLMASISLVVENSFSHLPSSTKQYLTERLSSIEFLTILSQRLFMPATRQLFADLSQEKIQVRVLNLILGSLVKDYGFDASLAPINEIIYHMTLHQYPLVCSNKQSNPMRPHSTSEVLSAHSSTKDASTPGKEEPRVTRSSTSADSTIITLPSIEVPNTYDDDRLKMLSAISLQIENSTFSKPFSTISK
# Assay: PBM E-score (8-mer binding enrichment) (E-score (-0.5 to 0.5)); higher = stronger / more preferred TF binding; most listed sequences are background and not binding sites
# Conditions: protein concentration: 200 nM; construct: GST-full length
# Outline: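 Each ungapped eight-base word and its reverse complement, pooled, received an E-score from the Universal PBM Analysis Suite. Underlying scans, normalised with masliner, recorded fluorescent anti-GST bound to GST-tagged yeast transcription factors. These were applied at about 100-200 nM to universal all-10-mer Agilent arrays double-stranded by primer extension.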
row,Sequence,PBM E-score
1,AAGTGCCC,-0.257
2,ACCTTTCA,-0.167
3,GACGATCC,-0.126
4,ACGCGGCG,-0.184
5,GTCCTAGA,0.0117
6,AAACCATG,0.128
7,TGACGTCA,0.00032
8,GAACTACC,-0.0642
9,AGAACAGC,-0.2
10,ATCATAGC,0.316
11,CTGCTGAC,0.256
12,CTAATCTA,0.221
13,GAACACGC,-0.019
14,ACGCTCAC,0.0311
15,GTCAGATA,0.188
16,GATACAGC,-0.0633
17,CTGATTGC,0.274
18,TCTTAAGA,0.189
19,CTCGGAGA,0.0175
20,AAATCGGG,-0.0343
21,ATATCTAA,0.128
22,CTCCAATC,0.0466
23,ATATTGTC,-0.195
24,GCCCAACC,-0.245
25,CAGACACG,-0.14

row,Sequence,PBM E-score
1,ATGCTAAG,-0.135
2,AACGTGTG,0.0865
3,AAGAGCCT,-0.168
4,CGCAAAAC,0.0772
5,ACTGCACT,0.169
6,CACGAATG,0.113
7,CATGACCG,0.0801
8,CTTGAGAC,0.156
9,ATAGGTAA,-0.0817
10,ACGCCTTC,-0.319
11,AGACCTCT,-0.108
12,AGACAGCT,-0.0975
13,AGTTAATA,0.252
14,GCACCCGC,-0.102
15,CTCACCGC,0.174
16,CGAATCGC,0.0546
17,AGGGTGAT,0.272
18,ATCCTGCG,0.00116
19,TCCTTCCA,0.0717
20,CATTATTC,-0.0506
21,GGGAAGAA,-0.131
22,ATAGGTCG,-0.0203
23,ACACAAGG,0.00037
24,ACTGCACA,-0.00816
25,CATCGTCG,0.0247

row,Sequence,PBM E-score
1,ATGCCCAT,-0.131
2,CGAAGACC,0.0326
3,CTTTGAGC,-0.039
4,ATCCCCGG,-0.377
5,CTCTTAAG,-0.00812
6,AGTCGCCA,0.356
7,GTATTCAC,0.119
8,TCTCGTAA,0.188
9,CCCAGTCG,-0.0798
10,ATGCTACG,-0.0498
11,AAACGTAC,-0.0731
12,GTTCTGCA,-0.117
13,ATACGTAG,0.0473
14,AATTTCTG,-0.0692
15,GAGCATAA,-0.112
16,AAATTTAA,0.259
17,CCGTGCTA,-0.257
18,ACTCAGCC,0.335
19,ACGAGCTG,-0.0932
20,CCATAGGC,-0.241
21,CTTCTGAC,0.168
22,CAAGCGCA,-0.164
23,ATCACAGG,0.166
24,ACATGAAC,-0.0583
25,TGCTCCAA,0.0428

row,Sequence,PBM E-score
1,CCACCAAC,-0.094
2,TAAAGACA,-0.0439
3,GAATGCTC,-0.18
4,CGCCTCTC,-0.392
5,CAGGCTGA,0.274
6,CTCATAAC,0.052
7,ATGACAAT,0.0317
8,ACCGGCGT,-0.0397
9,ATGAATGC,-0.0117
10,TCGCTACA,-0.0848
11,ACATAACG,-0.0744
12,CCTTTATA,-0.0483
13,CCCCGTGC,-0.28
14,CGCGTACC,-0.134
15,TACGACAA,0.0113
16,CTACAGTC,0.247
17,GTGCGAAC,-0.0299
18,AGCCTTTA,-0.0522
19,ATCGCGGA,-0.0108
20,ACAGGTAT,-0.13
21,AGAAGATG,-0.0613
22,ACCACTCC,-0.202
23,CCATGTTC,-0.128
24,AGATCCGG,-0.242
25,GACGCGAA,-0.0422

row,Sequence,PBM E-score
1,AAAAGAAT,-0.057
2,ACGCACGT,-0.182
3,ACGATAGA,-0.0655
4,TCTAAAAA,0.107
5,ACCTTTTC,0.122
6,CTGCAGTA,0.0872
7,CCCGCCGC,-0.118
8,TGAAAGAA,0.176
9,GTTTGACA,0.0291
10,CGGGTAGA,-0.155
11,AAGGGGAG,-0.0644
12,CATCACCA,-0.0269
13,CCTCCACG,-0.0173
14,ATTTGCGA,-0.0454
15,GCCGCAGC,-0.127
16,ACCTCATG,-0.159
17,GGAGAATA,0.0358
18,GTTTTAAA,0.0848
19,GCGGGTGA,0.188
20,CGTGCGGC,-0.109
21,CAGAAGCG,-0.0432
22,ACCGTAGC,-0.0264
23,GTGTCCAA,-0.0522
24,GTAATTAC,0.00874
25,TAGTTGCA,-0.0728

row,Sequence,PBM E-score
1,CGTCAACC,-0.225
2,GATATTTA,0.00233
3,CCACGACA,-0.139
4,CAGGGAGG,-0.129
5,CTGTTATC,-0.0697
6,ACGCTGGA,-0.0542
7,AAACGTCA,-0.121
8,CCACTACG,-0.0486
9,GGTGGGCA,-0.269
10,GAGACAGA,0.0413
11,ATTCGGTC,-0.119
12,CAACGCGA,-0.0437
13,ACCGCGCA,-0.135
14,GTTGGCCA,-0.141
15,GAACGAGA,0.0156
16,ACGGACGC,-0.0198
17,ATCATCAG,0.186
18,TATGTAAA,0.0283
19,CCGGCGCG,-0.165
20,CCGCTTCG,-0.332
21,CGGTTGGA,-0.296
22,AACAAGCA,-0.143
23,AGTATCAA,0.211
24,ATTGCAGG,0.00385
25,TTTACAAA,-0.0598

row,Sequence,PBM E-score
1,ATTGAAAT,0.139
2,AGATGGTG,-0.147
3,AGGGCTGA,0.187
4,TACACATA,0.199
5,AGGTAGCG,-0.191
6,GAGGATAA,-0.0753
7,ACTGAACA,0.175
8,GCATATGC,-0.246
9,ACGCCGGC,-0.109
10,AGCAAGAG,-0.0205
11,AAGTAAAT,0.00185
12,ATGGACAC,0.0425
13,CTGCTTTC,-0.0573
14,AGGGCCGA,0.0374
15,ACGCGGCA,-0.341
16,CGGTAGCA,-0.0626
17,CAGGATGC,-0.25
18,GAAAAGAA,-0.178
19,AAGCATGC,-0.129
20,AGCTGTGC,-0.223
21,CGACTAAG,0.399
22,GGCACACC,-0.301

# — the supplement of paper PMC3334620
